We go through 85 compounds from ChEMBL document CHEMBL4888484, “Replenishing the malaria drug discovery pipeline: Screening and hit evaluation of the MMV Hit Generation Library 1 (HGL1) against asexual blood stage Plasmodium falciparum ,using a nano luciferase reporter read-out” (2022).

Screen size: about 150,000 compounds; about 540 (0.36%) showed an effect of 50% or more. The list shows a part of the results.

For the test, the system named is Plasmodium falciparum. In words: Primary screen in NF54 nanoGlo assay, in single point, at 2uM, 72h; a lower Z score goes with more inhibition. It counts as functional, Erythrocyte. The following applies: timepoint 72 hour.
Usually % Inhibition stands for the change of the read-out against control, counted positive when it falls. In the case of `CS(=O)(=O)N[C@H]1[C@H](NC(=O)c2n[nH]c3c2CCCC3)[C@@H]2CCO[C@@H]21`, the “% Inhibition” value was -3% and the Z score was found to be 0.53.
In the same order, the values of `c1cnc2nc([C@H]3CCN(CC4CCCCC4)C3)[nH]c2c1` are -5% and 0.7.
As for `Cc1nn(C)c2[nH]c(C(=O)N3CCN(CCC(C)C)CC3)cc(=O)c12`, the “% Inhibition” value is listed as -23% and the Z score amounted to 1.93.
As to `Cc1cc(C(=O)N2CCCN(CC3CC3)[C@H](C(C)C)C2)nc(N)n1`, the “% Inhibition” value was -2% and the Z score came out at 0.33.
In the same order, the values of `O=C(Nc1ccnc(Cc2ccccc2)n1)N[C@H]1CC[C@H](O)CC1` are -1% and 0.16.
`Cc1ccc(C(F)(F)F)cc1NC(=O)N(C)CCS(C)(=O)=O`: the “% Inhibition” value is given as -8% and the Z score turned out to be 0.78.
Consider `CCn1ccc(C(=O)Nc2nc(-c3ccc4c(c3)OCO4)cs2)n1`, for which the “% Inhibition” value is reported as -14% and the Z score is reported as 2.43.
`Cc1cnc(C)n1CCC1CCN(C(=O)CN2CCCC2=O)CC1`: the “% Inhibition” value was -14% and the Z score is 1.78.
As to `O=C(c1ccco1)N1CC[C@H](Oc2cc(N3CCOCC3)ncn2)C1`, the “% Inhibition” value is recorded as -12% and the Z score is 1.52.
In the same order, the values of `COc1cccc2c(CN3CCOCC3)cc(=O)[nH]c12` are -12% and 1.59.
`OC[C@H]1CCCN(C2CCN(c3ccc(-c4cccc(F)c4)cc3)CC2)C1`: the “% Inhibition” value was -2% and the Z score came out at 0.32.
In the case of `CNC(=O)N[C@H]1CCCN(Cc2ccc(F)cn2)C1`, the “% Inhibition” value is recorded as -39% and the Z score is reported as 4.57.
In the case of `O=C(O)[C@]12CCC[C@H]1CC(NCc1ncn(Cc3cccc(F)c3)n1)C2` (stereo not given in full), the “% Inhibition” value is reported as -17% and the Z score is reported as 2.89.
Turning to `Cc1[nH]c2c(c1C(=O)N1C[C@@H]3[C@@H]4CC[C@@H](C4)[C@@H]3C1)C(=O)CCC2`, the “% Inhibition” value is listed as 1% and the Z score is on record as -0.13.
On to `Cc1ccn2c(NC(=O)C3CCC3)c(-c3cccc(F)c3)nc2c1`, for which the “% Inhibition” value is -9% and the Z score is recorded as 1.79.
For `COC1CCC(CNC(=O)[C@H]2NCC23CCCC3)CC1` (stereo not given in full), the “% Inhibition” value is listed as -2% and the Z score is 0.32.
In the same order, the values of `CNC(=O)c1cc(S(=O)(=O)N2CCC(=O)C3CCCC32)cn1C` (stereo not given) are -7% and 0.75.
Regarding `O=C(Nc1cccnc1)c1ccc(O[C@H]2CCOC2)nc1`, the “% Inhibition” value is -16% and the Z score came to 3.11.
In the same order, the values of `CCOc1ccc(S(=O)(=O)N[C@@H](C)c2nccs2)c(C)c1` are -15% and 2.14.
`COCCCNC(=O)c1cc(Br)ccc1Br`: the “% Inhibition” value is given as -3% and the Z score is on record as 0.44.
With `CC[C@H]1CCCCN1Cn1nc(-c2cc(OC)cc(OC)c2)oc1=S`, the “% Inhibition” value came out at 2% and the Z score is listed as -0.31.
In the same order, the values of `NC[C@H]1CCCCN1C(=O)c1cnc(Cc2c(Cl)cccc2Cl)nc1O` are -14% and 2.75.
With `CCCCC(C)C(=O)NCC1CCCN(CC(F)(F)F)C1` (stereo not given), the “% Inhibition” value is -19% and the Z score worked out at 2.07.
In the case of `Cc1ncsc1CCN(C)Cc1nc(C(F)(F)F)no1`, the “% Inhibition” value is given as -16% and the Z score was found to be 1.88.
For `O=C1[C@@H]2Cc3c([nH]c4ccccc34)C(CCc3ccccc3)N2C(=O)CN1Cc1ccccc1Cl` (stereo not given in full), the “% Inhibition” value is on record as -14% and the Z score was determined as 1.69.
Take `COc1ccccc1Cn1cnc2c3ccccc3n(Cc3ccc(C)cc3)c2c1=O`: the “% Inhibition” value is -11% and the Z score was 1.27.
Regarding `COc1cc(NC(=O)CN(C)C(=O)c2n[nH]nc2C)cc(OC)c1`, the “% Inhibition” value is on record as -4% and the Z score is listed as 0.47.
On to `Cc1ccc(Nc2nnc(CC(=O)Nc3ccc(OC(F)(F)F)cc3)s2)cc1`, for which the “% Inhibition” value is on record as -15% and the Z score was determined as 1.91.
With `NC(=O)C1CCN(C(=O)c2cnc(O[C@H]3CCOC3)c(Cl)c2)CC1`, the “% Inhibition” value came out at 3% and the Z score was -0.62.
In the same order, the values of `CN(C)c1ncccc1C(=O)Oc1cccc(Cl)c1Cl` are -3% and 0.48.
`C[C@@H](O)CNC(=O)NCC(c1cccc(C(F)(F)F)c1)N(C)C` (stereo not given in full): the “% Inhibition” value is -8% and the Z score is 1.07.
Take `Cc1cccc(NC(=O)N[C@H]2CCC[C@H]2C(N)=O)n1`: the “% Inhibition” value is on record as -4% and the Z score worked out at 0.79.
For the compound `CC(C(=O)N1C[C@H](CS(N)(=O)=O)[C@@H](C)C1)c1ccccn1` (stereo not given in full), the “% Inhibition” value was -8% and the Z score was determined as 1.62.
For the compound `CC(=O)N[C@H]1CCCN(Cc2cc(=O)c3cc(C)ccc3[nH]2)C1`, the “% Inhibition” value is -4% and the Z score was determined as 0.7.
With `CCN1CCC(CC(=O)N[C@@H](C(=O)O)c2ccc(F)c(Cl)c2)CC1`, the “% Inhibition” value was -6% and the Z score was found to be 1.06.
Regarding `Nc1cccc(C(=O)NCc2ccc(CN3CCC(O)CC3)cc2)n1`, the “% Inhibition” value is given as -4% and the Z score is 0.7.
As to `O=C(c1ncoc1-c1ccon1)N1CCOc2c(Br)cccc2C1`, the “% Inhibition” value is listed as -17% and the Z score was 1.81.
For the compound `O=S(=O)(c1ccc(F)c(Cl)c1)N1CCC[C@H]1c1nncn1Cc1ccncc1`, the “% Inhibition” value was -5% and the Z score worked out at 0.93.
With `CCCC1C2C(=O)N(c3c(C)cccc3C)C(=O)C2ON1c1ccccc1` (stereo not given), the “% Inhibition” value is -2% and the Z score was determined as 0.23.
As to `CC(=O)Nc1cc(F)c(S(=O)(=O)Nc2ccsc2)c(F)c1`, the “% Inhibition” value was 0% and the Z score is reported as -0.02.
In the same order, the values of `CC(CCC1CCCO1)NC(=O)c1cc(=O)[nH]c2cc(F)ccc12` (stereo not given) are -8% and 1.68.
On to `COc1cccc(N2C[C@H](Cc3ccccc3)N(C(=O)CCC(C)=O)CC2=O)c1`, for which the “% Inhibition” value came out at 1% and the Z score is on record as -0.12.
Take `Cc1ccc2oc(C(=O)N3CCN(C(=O)c4ccco4)CC3)cc2n1`: the “% Inhibition” value is given as -2% and the Z score is 0.26.
`O=C(CO)N[C@H]1CC2(CCCC2)Oc2ccccc21`: the “% Inhibition” value is 6% and the Z score is -0.71.
In the same order, the values of `COc1ccc(CNC(=O)Cn2c(C)nc3cc4c(cc32)OCCO4)cc1OC` are 0% and 0.05.
Take `Cc1noc(-c2ccc(S(=O)(=O)N3CCC(c4nnc[nH]4)CC3)o2)c1C`: the “% Inhibition” value worked out at 10% and the Z score was -1.34.
Take `CCc1nnc(-c2c(C)c(S(=O)(=O)Nc3cccc(OC)c3)c(C)n2CC)o1`: the “% Inhibition” value came out at 28% and the Z score is recorded as -3.56.
In the same order, the values of `CN(Cc1cnccn1)C(=O)Cc1ccc(O)cc1Cl` are 0% and -0.05.
In the case of `O=C(NCC(F)(F)F)[C@@H]1CCCN1c1nc2ccccc2o1`, the “% Inhibition” value was -18% and the Z score is reported as 3.33.
In the same order, the values of `CC1CCN(c2cc(C(=O)O)ncn2)CC1` are -6% and 1.02.
In the same order, the values of `COc1cccc(C(C(=O)O)N2CCC(C3CCOCC3)C2)c1` (stereo not given) are -9% and 1.05.
Regarding `CC(C)CC[C@H](C)NC(=O)Nc1nc(C(F)(F)F)co1`, the “% Inhibition” value is recorded as -2% and the Z score is reported as 0.23.
On to `COc1cnc(NC(=O)c2cc(C(F)(F)F)cnc2C)s1`, for which the “% Inhibition” value amounted to 0% and the Z score is on record as 0.05.
Turning to `COC(=O)c1nnc(-c2ccc(F)cn2)o1`, the “% Inhibition” value was -6% and the Z score was determined as 0.89.
In the same order, the values of `CC(C)C(=O)N1CC2(CCC2)[C@H]1c1ccccc1` are -9% and 1.58.
For `CN(Cc1ccccc1)c1ccc(-c2ccc(Cl)cc2)nn1`, the “% Inhibition” value is given as -17% and the Z score was found to be 1.97.
Consider `CCCCc1cn(C2CCN(C(=O)[C@@H]3CCCO3)CC2)nn1`, for which the “% Inhibition” value is listed as -6% and the Z score is listed as 0.73.
In the same order, the values of `CCCC(=O)NCc1noc(-c2ccco2)n1` are 5% and -0.68.
As for `COc1cccc(-c2n[nH]c(CC(C)C)c2NC(=O)C2CCCC2)c1`, the “% Inhibition” value is on record as 4% and the Z score is given as -0.45.
In the same order, the values of `CC(C)(C)N(Cc1ccccn1)C(=O)[C@H]1CCCOC1` are -6% and 0.73.
In the case of `CCOCCCNCc1ccc(C)cc1`, the “% Inhibition” value was -16% and the Z score is recorded as 2.55.
In the same order, the values of `COc1cc(CC2CN(C(=O)c3occc3C)C2)cc(OC)c1` are -6% and 0.81.
Take `CCn1cc(CN2CCO[C@@H](CCOC)C2)cc1C#N`: the “% Inhibition” value was -1% and the Z score is on record as 0.21.
With `CC(C)c1noc(C2CCCCN2C(=O)C(C)n2cncn2)n1` (stereo not given), the “% Inhibition” value is listed as -3% and the Z score is 0.48.
In the same order, the values of `CN(C)c1ccc(NC(=O)NC[C@H](O)c2ccco2)cc1Cl` are -16% and 1.51.
As to `Cc1cc(-c2nc([C@H]3CCOC3)no2)c2ccccc2n1`, the “% Inhibition” value was determined as 2% and the Z score was -0.33.
Regarding `O=C1CCN(CC(=O)N2CCC[C@H](C3CCOCC3)C2)C(=O)N1`, the “% Inhibition” value was -2% and the Z score was found to be 0.28.
For `c1cn(C2CCCC2)nc1CN1CC2(CCC2)[C@@H]1C1CCOCC1`, the “% Inhibition” value is on record as 2% and the Z score is on record as -0.31.
Take `COc1ccc(-c2ccc(N3CCCN(C(=O)CN(CC4CC4)C(=O)CC(C)C)CC3)nn2)cc1`: the “% Inhibition” value was 4% and the Z score is -0.61.
Regarding `CC(=O)N1C[C@@H](O)C[C@@H]1c1nc(-c2ccc(F)c(CN(C)C)c2)no1`, the “% Inhibition” value is listed as -22% and the Z score came out at 2.34.
For `C[C@H](NC1(CNC(=O)C(C)(C)C#N)CCCC1)c1ccccc1`, the “% Inhibition” value is listed as -15% and the Z score was 2.96.
Consider `Cc1cc(NC(=O)N2CCOC3(CC4CCC3C4)C2)ccn1` (stereo not given), for which the “% Inhibition” value is -3% and the Z score is 0.54.
In the same order, the values of `Cc1ccc(-c2noc3c(NCc4ccc(Cl)cc4)ncnc23)cc1` are -10% and 1.29.
In the same order, the values of `C=CCNc1cc(S(=O)(=O)N(C)C)ccc1OCC` are 7% and -1.42.
As to `Cn1nc(NC(=O)c2cc3n(n2)CCCO3)cc1OC(F)F`, the “% Inhibition” value came out at 0% and the Z score is 0.02.
For the compound `Cc1nc2ccccc2n1[C@H]1CCN(C(=O)Cn2ncccc2=O)C1`, the “% Inhibition” value worked out at 0% and the Z score is on record as -0.08.
In the same order, the values of `COc1cccc(C)c1NC(=O)N1C[C@H]2C[C@@H](C1)[C@@H]1CCCC(=O)N1C2` are 7% and -1.23.
In the same order, the values of `CCC1(CC)CN([C@@H]2CCNC(=O)CC2)CCO1` are -6% and 1.18.
`O=C(NCC1CC1)[C@]1(F)CCCN(S(=O)(=O)c2ccc(F)cc2F)C1`: the “% Inhibition” value is given as -4% and the Z score turned out to be 0.35.
Regarding `Cc1ccc(CN2C[C@@H](CO)[C@H](C3CCN(C(=O)C(C)C)CC3)C2)s1`, the “% Inhibition” value is reported as -8% and the Z score turned out to be 0.98.
With `CCOC(=O)C1(Cc2ccc(Cl)cc2)CCN(Cc2ccccn2)CC1`, the “% Inhibition” value was -4% and the Z score is given as 0.81.
Consider `COc1ccc(CN2CCO[C@H](C(=O)NC3Cc4ccccc4C3)C2)cc1C`, for which the “% Inhibition” value worked out at 2% and the Z score is on record as -0.37.
In the same order, the values of `Cc1ccc(C(=O)Nc2nccnc2C(=O)N2CCC(N3CCCCC3)CC2)cc1` are -5% and 0.75.
Take `O=C1C[C@H](NC(=O)c2cccc3ccnn23)c2ccccc2N1`: the “% Inhibition” value is given as -6% and the Z score is listed as 0.77.
`CCN(CC#N)S(=O)(=O)c1cc(F)c(F)c(F)c1`: the “% Inhibition” value amounted to 0% and the Z score was found to be 0.06.
